The text below walks through data of PubChem BioAssay AID488969 (Vanderbilt High Throughput Screening Facility, 2010).

Several values for one entry are separate records, joined by “and”; a condition that tells them apart may be missing. Equal entries are not always repeated. The full ranking holds about 110,000 compounds; the median of “z-score” is about -0.1, and the highest 2% start at about 2. This is one part of the list. Activity calls are given as the source filed them.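 The calls were made as follows: active = z-score in the third read window above 3 or below -3; inactive = the rest.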

The test addresses Metabotropic glutamate receptor 8 (Rattus norvegicus) (UniProt P70579). Briefly: rat mGluR8 modulators via GIRK flux, primary screen, cell-based, thallium flux, HTS (AID 488969). The conditions noted are these: HEK293 rat mGluR8, GIRK (G protein-gated inwardly rectifying potassium channel) thallium flux, FluoZin2; at 10 µM; stronger effect = higher value; submaximal glutamate (EC20) added with thallium.
Chain of UniProt P70579 (P70579 whole entry, looked up): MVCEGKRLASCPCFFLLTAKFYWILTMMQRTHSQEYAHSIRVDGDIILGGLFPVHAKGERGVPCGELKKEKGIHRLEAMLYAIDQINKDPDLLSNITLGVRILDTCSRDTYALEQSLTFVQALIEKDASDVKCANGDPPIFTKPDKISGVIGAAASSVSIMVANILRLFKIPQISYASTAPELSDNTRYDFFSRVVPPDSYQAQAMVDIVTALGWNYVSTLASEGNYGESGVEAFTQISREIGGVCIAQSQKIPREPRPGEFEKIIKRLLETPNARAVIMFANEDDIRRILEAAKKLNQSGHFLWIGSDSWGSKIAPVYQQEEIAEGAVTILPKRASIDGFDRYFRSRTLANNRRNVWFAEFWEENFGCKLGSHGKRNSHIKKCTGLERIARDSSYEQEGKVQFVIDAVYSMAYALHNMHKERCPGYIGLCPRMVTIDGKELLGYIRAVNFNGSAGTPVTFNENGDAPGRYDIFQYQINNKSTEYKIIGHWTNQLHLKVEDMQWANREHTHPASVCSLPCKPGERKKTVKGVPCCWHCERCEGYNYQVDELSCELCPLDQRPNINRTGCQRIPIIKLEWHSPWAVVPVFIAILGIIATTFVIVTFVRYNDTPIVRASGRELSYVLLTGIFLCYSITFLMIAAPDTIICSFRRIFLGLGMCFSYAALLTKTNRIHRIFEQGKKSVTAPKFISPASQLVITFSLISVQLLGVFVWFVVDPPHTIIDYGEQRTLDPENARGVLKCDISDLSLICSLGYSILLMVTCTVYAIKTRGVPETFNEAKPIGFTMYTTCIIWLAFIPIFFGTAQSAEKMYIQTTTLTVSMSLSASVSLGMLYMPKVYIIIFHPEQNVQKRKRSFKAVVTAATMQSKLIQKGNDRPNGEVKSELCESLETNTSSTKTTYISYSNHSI
`COc1ccc(C2=C(N)c3ccccc3C2=O)cc1` displayed a z-score of 0.623.

In the case of `COc1cccc(-c2nnc(NC(=O)Cc3cccs3)s2)c1`, the z-score was -0.044.

With `Cc1nn(-c2ccc(C(=O)O)cc2)c(=O)c2ccccc12`, the z-score stood at 0.142.

Consider `O=[N+]([O-])c1ccc(N2CCN(c3ccc(Cl)nn3)CC2)c(Cl)c1`, for which the z-score turned out to be 0.0522.

In the case of `COc1cccc(C2C3=C(Nc4[nH]n(-c5ccccc5)c(=O)c42)c2ccccc2C3=O)c1` (stereo unspecified), the z-score was -0.169.

Compound `COc1ccc(S(=O)(=O)N(C)CC(=O)Nc2ccc(F)cc2)cc1` registered a z-score of 0.402.

In turn, `O=C(O)Cc1ccc(C(=O)c2ccccc2F)s1` displayed a z-score of 0.48.

As for `COC(=O)C12CC3CC(C1)CC(n1cnc(Cl)n1)(C3)C2`, the z-score was found to be 0.327.

`CCCOc1ccc(S(=O)(=O)NNC(=O)c2cc3ccccc3o2)cc1` returned a z-score of -0.117.

`CCCNC(=O)C(Sc1ccccc1)c1ccccc1` (stereo unspecified) came in with a z-score of -0.184.

`CCN1CCN(CCCNC(=O)c2cc3sccc3n2CC)CC1` returned a z-score of -0.406.

Turning to `CCOC(=O)c1ccc(NC(=O)C(C)N2C(=O)c3ccccc3C2=O)cc1` (stereo unspecified), the z-score stood at 0.0109.

`COc1cc2cc(C(=O)Nc3ccccc3)c(N)nc2cc1OC` gave a z-score of -1.08.

For the compound `COC(=O)c1cc(=O)n(CCc2ccc(OC)cc2)c(=Nc2ccc(F)c(Cl)c2)s1`, the z-score is active: 9.49.

The compound `Cc1cccc(C(=O)Nc2sc3c(c2C#N)CCCCC3)c1` registered a z-score of -0.209.

Regarding `Cc1c(C)c2ccc(OS(C)(=O)=O)cc2oc1=O`, the z-score was -0.191.

`Cc1ccc(C)c(NC(=S)NC(NC(=O)N(C)C)C(Cl)(Cl)Cl)c1` (stereo unspecified) registered a z-score of 0.00458.

Consider `COC(=O)CN(c1ccc2c(c1)OCO2)S(C)(=O)=O`, for which the z-score worked out at 0.0344.

Turning to `CCCCOC(=O)CSC1=C(C#N)C(c2ccccc2OC)C(C#N)C(=O)N1` (stereo unspecified), the z-score is -1.3.

`Cc1ccc2[nH]c(=O)c(NC(N)=S)nc2c1` displayed a z-score of 0.252.

For `Cc1cccc(NC(=S)/N=C(\N)Nc2nc(C)c3ccccc3n2)c1`, the z-score is -0.173.

Take `O=C(Nc1cnc2ccccc2c1)c1cccnc1`: the z-score came to 0.599.

Take `CC(=O)Nc1ccc(S(=O)(=O)Oc2ccc(C=O)cc2)cc1`: the z-score was -0.417.

`COc1ccc(OCC(=O)NNC(=O)c2cccc(S(=O)(=O)N(C)C)c2)cc1`: the z-score was found to be 0.309.

With `CCOC(=O)c1c(C)[nH]c(C(=O)COC(=O)c2ccccc2NC(=O)c2ccco2)c1C`, the z-score is -0.00749.

The compound `Cc1ccc(C2C(C(=O)c3ccco3)=C(O)C(=O)N2c2nnc(C)s2)cc1` (stereo unspecified) came in with a z-score of -0.959.

`Cn1c(C(=O)NCCc2c[nH]c3ccccc23)cc2sccc21` registered a z-score of -0.444.

In the case of `CC1=C(C(=O)OCc2ccccc2)C(c2ccsc2)C(C#N)=C(N)O1` (stereo unspecified), the z-score is 0.0631.

`CCOC(=O)c1cnc2c(-c3ccccc3)c(C)nn2c1N` registered a z-score of 0.423.

`COc1ccc(-c2coc3cc4oc(=O)cc(C)c4cc23)cc1F` returned a z-score of -0.258.

Consider `COc1ccc2nc(C)cc(SCC(=O)O)c2c1`, for which the z-score is -0.0738 and -0.321.

In turn, `COc1ccc(C(=O)c2oc3ccccc3c2N)cc1` had a z-score of -0.229.

Take `COc1cccc(NC(=O)NCc2cccn2C)c1`: the z-score turned out to be 0.0848.

Take `Cc1noc(C)c1CN(C(=S)NC1CC1)c1ccccc1`: the z-score is -0.228.

As to `Cc1ccccc1NC(=O)/C(=C/c1ccco1)c1ccccc1`, the z-score was 1.54.

Compound `O=C(Nc1ccsc1C(=O)NC1CC1)c1ccccc1` returned a z-score of -0.678.

Compound `CC1(C)SCC(C(=O)O)N1C=O` (stereo unspecified) showed a z-score of -0.0525.

`O=C(Nc1ccccc1C(=O)N1CCOCC1)c1ccncc1` displayed a z-score of 0.643.

`O=C(Nc1cccc(C(=O)N2CCOCC2)c1)NC1CCCCC1`: the z-score amounted to 0.761.

As to `O=S(=O)(c1cccc(C(F)(F)F)c1)N1CCN(C(=S)NCc2ccco2)CC1`, the z-score was -0.269.

On to `CCC(C)(C)c1ccc(Oc2ccc(NC(=O)COC(=O)C3=COCCO3)cc2)cc1`, for which the z-score is -0.0127.

As to `CCCOC(=O)CN1C(=O)c2ccccc2C1=O`, the z-score was -0.291.

Regarding `CCOc1cccc(C2C(C(=O)c3ccc(C)o3)=C(O)C(=O)N2Cc2ccncc2)c1` (stereo unspecified), the z-score was -1.1.

Regarding `COc1ccc(/C=N/Nc2nc3ccccc3c(=O)[nH]2)cc1`, the z-score is -0.215.

For the compound `CCOC(=O)CN1C(=O)C(O)(CC(=O)c2ccco2)c2ccccc21` (stereo unspecified), the z-score stood at 0.408.

Turning to `O=C(NC1CCCCC1)C(c1ccc(F)cc1)N(CCc1ccccc1)C(=O)CN1C(=O)c2ccccc2S1(=O)=O` (stereo unspecified), the z-score was -0.267.

`CCCCN(C(=O)CSc1nnc(-c2ccccc2OC)n1C)c1c(N)n(Cc2ccccc2)c(=O)[nH]c1=O`: the z-score was -0.25.

In the case of `CCCCn1c(Cc2ccccc2)nnc1SCC(=O)N1CCOCC1`, the z-score was -0.257.

`O=C(NCc1ccco1)c1cc2ccccc2o1` yielded a z-score of -0.0182.

The compound `COC(=O)c1ccc(COC(=O)c2ccc(CS(=O)(=O)c3ccc(C)cc3)cc2)cc1` came in with a z-score of -0.331.

In turn, `COc1ccc(CNC(=O)CCSc2nc(-c3ccc4c(c3)OCO4)cc(C(F)(F)F)n2)cc1` came in with a z-score of -0.113.

As for `Cc1nonc1OCCNC(=O)C12CC3CC(CC(C3)C1)C2`, the z-score stood at 0.229.

In turn, `Cc1ccc(N2C(=O)[C@@H]3Cc4ccccc4CN3C2=O)cc1` yielded a z-score of 0.799.

For the compound `CC(C)C(NC(=O)c1ccc(C(C)(C)C)cc1)C(=O)O` (stereo unspecified), the z-score was -0.0228.

For `Cc1ccc(C(=O)NC(=S)Nc2ccc3[nH]c(=O)[nH]c3c2)cc1C`, the z-score was 0.0514.

Compound `CN(C)c1ccc(CNc2ccc3c(c2)ncn3C)cc1` came in with a z-score of 0.00566.
